# Reference: patent US20090104204A1 (CRUCELL HOLLAND B V, published 2009)
# B1: single-chain phage antibody SC05-132 (scFv)
# scFv: EVLESGGGLVQPGGSLRLSCSDSGFSFNNYWMTWVRQAPGKGLEWVANINRDGSDKYHVDSVEGRFTISRDNSKNSLYLQMNNLRADDAAVYFCARGGRTTSWYWRNWGQGTLVTVSSGTGGSGGTGSGTGGST[letters of about 100 residues not shown]GGGTKLEIKR
# notes: also called scFv SC05-132
# What was measured:
# bovine serum albumin [1] = target: T1, bovine serum albumin (bovine, UniProt P02769); experiment: ELISA, phage antibody on coated 1% BSA, anti-M13 peroxidase
# T1 construct: Negative control antigen in the non-specific reactivity ELISA; also called BSA; BSA (1%)
# Method: (§1) To test for non-specific reactivity against non-bacterial antigens an ELISA assay was used. The complex antigens 5% FBS, 2% ELK and 1% BSA were coated overnight to Maxisorp™ ELISA plates. Selected single-chain phage antibodies were incubated for 15 minutes in an equal volume of PBS containing 1% BSA to obtain blocked phage antibodies. The plates were emptied, and the blocked single-chain phage antibodies were added to the wells. Incubation was allowed to proceed for two hours at room temperature, the plates were washed in PBS containing 0.1% v/v Tween-20 and bound phage antibodies were detected by means of OD 492 nm measurement using an anti-M13 antibody conjugated to peroxidase. As a control, the procedure was performed simultaneously without single-chain phage antibody, with a negative control single-chain phage antibody directed against West Nile virus envelope protein (SC04-374).
# bovine serum albumin [2] = target: T1, bovine serum albumin; experiment: ELISA, phage antibody on coated 1% BSA, anti-M13 peroxidase, OD 492 nm
# Method: as §1
# T1 sequence (P02769 25-607 limits assumed): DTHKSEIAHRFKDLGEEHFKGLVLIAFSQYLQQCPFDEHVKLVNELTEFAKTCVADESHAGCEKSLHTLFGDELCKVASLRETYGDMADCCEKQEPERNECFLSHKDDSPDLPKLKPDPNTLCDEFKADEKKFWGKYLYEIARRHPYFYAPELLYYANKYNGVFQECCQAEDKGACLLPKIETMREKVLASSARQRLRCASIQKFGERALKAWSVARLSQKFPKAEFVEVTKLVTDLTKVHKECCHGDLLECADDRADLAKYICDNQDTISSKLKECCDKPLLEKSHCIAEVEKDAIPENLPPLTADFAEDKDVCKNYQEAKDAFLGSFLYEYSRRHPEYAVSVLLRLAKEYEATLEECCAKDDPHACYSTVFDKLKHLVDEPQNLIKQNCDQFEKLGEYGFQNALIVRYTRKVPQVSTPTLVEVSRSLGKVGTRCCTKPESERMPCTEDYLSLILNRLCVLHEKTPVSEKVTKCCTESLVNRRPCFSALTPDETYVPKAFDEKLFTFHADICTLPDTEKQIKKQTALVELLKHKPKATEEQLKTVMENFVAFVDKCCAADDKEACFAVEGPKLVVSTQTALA
binder,measurement,setting,value
B1,ELISA (OD492 nm),bovine serum albumin [1],0.04 OD492 nm
same,binding result,bovine serum albumin [2],no binding
